# Assay results taken from the supplement of paper PMC7826260.
# The list shows a part of the results. One pool of 16,384 single-stranded DNAs met each Rep nickase domain in vitro (1 h at 37 °C, 3 µM enzyme); the outer parts of the 90-letter strands are left off. Uncut reads are compared with the no-enzyme pool on a log2 scale; strong cutting gives strongly negative numbers. There is no active / inactive call. Because reads are shares of a total, they shift together, so uncut sequences can rise above 0 when many others are cut.
# Columns and labels:
# Test in all cases: uncleaved DNA left, log2 of reads against the no-enzyme library (log2 ratio); higher = less cleavage (more negative = more Rep cleavage of the k-mer); sequences stand for … in CTCGTCCG…ACCGGAGA
# [1] = tested on: T1, Rep nickase domain of Muscovy duck circovirus
# T1 sequence (Rep 1-111, printed without the tag): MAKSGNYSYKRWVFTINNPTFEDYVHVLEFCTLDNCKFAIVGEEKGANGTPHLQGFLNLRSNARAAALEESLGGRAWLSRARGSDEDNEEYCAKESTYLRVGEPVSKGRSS
# Description: (§1)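 A pool of 90-nt single-stranded DNAs with seven random bases just before the constant AC of the nick site (name = the seven bases) was cut by 3 µM recombinant His6-SUMO-tagged Rep nickase domain (300 nM DNA, 50 mM HEPES pH 8.0, 50 mM NaCl, 1 mM MnCl2, 1 h, 37 °C, three replicates). Uncut DNA was amplified and sequenced.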
# [2] = tested on: T2, Rep nickase domain of banana bunchy top virus
# T2 sequence (Rep 1-94, printed without the tag): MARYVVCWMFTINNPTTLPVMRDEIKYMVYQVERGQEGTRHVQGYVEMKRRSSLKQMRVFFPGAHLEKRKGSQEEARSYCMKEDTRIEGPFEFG
# Description: as §1
# [3] = tested on: T3, Rep nickase domain of cabbage leaf curl virus
# T3 sequence (Rep 1-116, printed without the tag): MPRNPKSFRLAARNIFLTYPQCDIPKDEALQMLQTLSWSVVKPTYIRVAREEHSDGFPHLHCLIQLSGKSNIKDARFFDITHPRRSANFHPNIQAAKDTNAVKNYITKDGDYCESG
# Description: as §1
# [4] = tested on: T4, Rep nickase domain of chickpea chlorotic dwarf virus
# T4 sequence (Rep 1-124, printed without the tag): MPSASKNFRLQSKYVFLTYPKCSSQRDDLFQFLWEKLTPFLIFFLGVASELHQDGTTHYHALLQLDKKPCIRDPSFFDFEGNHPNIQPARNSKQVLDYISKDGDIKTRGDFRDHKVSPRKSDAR
# Description: as §1
# [5] = tested on: T5, Rep nickase domain of faba bean necrotic yellows virus
# T5 sequence (Rep 1-98, printed without the tag): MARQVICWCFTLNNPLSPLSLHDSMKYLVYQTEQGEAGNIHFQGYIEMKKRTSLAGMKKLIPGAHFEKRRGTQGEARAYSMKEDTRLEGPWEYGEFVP
# Description: as §1
# [6] = tested on: T6, Rep nickase domain of maize striate mosaic virus
# T6 sequence (Rep 1-117, printed without the tag): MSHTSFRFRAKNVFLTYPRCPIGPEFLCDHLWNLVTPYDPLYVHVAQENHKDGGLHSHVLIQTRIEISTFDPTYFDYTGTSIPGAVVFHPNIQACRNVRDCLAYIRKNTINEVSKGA
# Description: as §1
# [7] = tested on: T7, Rep nickase domain of porcine circovirus 2
# T7 sequence (Rep 2-116, printed without the tag): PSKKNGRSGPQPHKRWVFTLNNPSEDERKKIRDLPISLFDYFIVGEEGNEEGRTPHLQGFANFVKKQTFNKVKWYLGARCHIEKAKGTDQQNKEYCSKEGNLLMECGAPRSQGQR
# Description: as §1
# [8] = tested on: T8, Rep nickase domain of tomato golden mosaic virus
# T8 sequence (Rep 1-124, printed without the tag): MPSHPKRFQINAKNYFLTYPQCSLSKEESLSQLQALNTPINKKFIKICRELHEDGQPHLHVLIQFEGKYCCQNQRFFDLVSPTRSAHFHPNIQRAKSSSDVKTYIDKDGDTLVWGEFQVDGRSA
# Description: as §1
# [9] = tested on: T9, Rep nickase domain of tomato yellow leaf curl virus
# T9 sequence (Rep 1-136, printed without the tag): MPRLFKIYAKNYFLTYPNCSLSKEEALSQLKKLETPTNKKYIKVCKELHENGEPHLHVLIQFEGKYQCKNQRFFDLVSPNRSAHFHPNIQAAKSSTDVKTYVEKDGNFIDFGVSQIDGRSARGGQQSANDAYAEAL
# Description: as §1
# [10] = tested on: T10, Rep nickase domain of wheat dwarf virus
# T10 sequence (Rep 1-137, printed without the tag): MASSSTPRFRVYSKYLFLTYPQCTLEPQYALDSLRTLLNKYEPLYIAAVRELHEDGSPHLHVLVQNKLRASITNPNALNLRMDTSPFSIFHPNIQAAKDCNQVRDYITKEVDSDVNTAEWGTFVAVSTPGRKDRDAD
# Description: as §1
Sequence,uncleaved DNA left (log2) [1],uncleaved DNA left (log2) [2],uncleaved DNA left (log2) [3],uncleaved DNA left (log2) [4],uncleaved DNA left (log2) [5],uncleaved DNA left (log2) [6],uncleaved DNA left (log2) [7],uncleaved DNA left (log2) [8],uncleaved DNA left (log2) [9],uncleaved DNA left (log2) [10]
CACTGGT,-0.557,-0.753,-0.25,-0.274,-0.218,0.0698,-3.38,-0.29,-0.0485,-0.175
GTAATAC,-0.00941,0.179,0.249,0.737,0.0825,1.69,-0.963,0.0867,0.147,0.0487
TCCTAAA,0.145,0.148,0.324,0.0183,0.189,-0.318,0.134,0.173,0.129,0.164
TGTCAGT,0.0655,0.0695,-0.00728,0.105,-0.00892,-0.233,-0.477,-0.0481,0.0658,0.0135
TATTTCG,0.0203,-0.124,-0.954,0.0113,0.108,-1.15,0.0846,-0.0368,-0.00041,-0.101
TCTGCTG,0.0784,-0.0861,0.0706,0.692,-0.00934,0.677,0.171,0.159,-0.00453,-0.0154
CGGATAA,0.0239,0.0588,0.183,0.808,0.00258,0.833,0.109,0.123,0.0133,0.0965
CCTTCCA,-0.253,0.00247,-0.0644,-1.4,-0.023,-0.633,-0.221,-0.115,-0.0673,-0.00837
CTCACGC,0.0605,-0.087,-0.0114,-0.407,-0.0362,-0.666,0.11,-0.0438,-0.0114,-0.0603
AACCCCA,0.0261,0.0789,0.531,-0.589,0.0335,0.752,-0.223,0.0407,-0.0401,0.143
TGCTGTA,-0.0245,-0.0189,-0.056,0.0825,-0.0673,0.414,-0.158,-0.0757,-0.136,-0.115
CCAGTGT,0.0242,-0.0874,-0.347,-0.61,-0.0876,-0.914,-0.0549,-0.00612,-0.112,-0.183
TAGGCGG,0.14,0.115,0.374,0.671,0.131,0.671,0.187,0.069,-0.157,-0.00293
ATCACTT,-0.0585,-0.279,-0.156,-2.27,0.0157,-0.451,-0.568,0.0657,-0.0772,-0.0724
GTCCCCG,-0.0722,0.077,0.263,1.14,-0.0396,1.33,-0.0332,0.111,-0.0402,-0.0374
GGAGTAA,-0.0257,0.069,0.441,1.16,0.02,1.85,0.033,0.0797,0.0808,0.0889
CGGAGCC,-0.048,-0.0527,0.304,0.63,0.00405,0.372,-0.0643,-0.11,0.0422,-0.0426
CGGGGGC,-0.00461,-0.0512,0.831,1.25,0.0152,2.02,0.262,0.101,-0.0253,0.0184
CATGGTT,-0.0336,-0.206,-0.0728,-0.033,-0.19,0.871,-0.215,-0.194,-0.224,-0.243
GTCTACG,0.0107,0.0958,0.09,0.353,0.0287,0.735,0.0898,0.106,0.0526,0.031
TAAGGGT,-0.0447,0.0786,0.381,2.87,-0.0496,1.71,-0.0281,0.102,-0.0885,-0.0296
CCGGAAC,0.0514,0.0751,0.335,0.5,0.111,1.11,0.138,0.138,-0.126,-0.0195
CCATTGG,-0.256,-0.234,-0.806,-0.374,-0.0871,-1.26,0.0535,-0.169,0.00871,-0.256
CTACCGA,0.00532,-0.0853,-0.327,-1.24,0.0528,-0.778,-0.057,-0.0584,0.041,-0.0925
TTGTTTG,-0.0892,-0.0209,-0.502,-0.727,0.106,-1.07,0.045,-0.0178,-0.0625,-0.0121
CCGCCAC,-0.0765,-0.0174,0.079,-0.308,-0.00375,-0.55,-0.0193,-0.0103,-0.0295,-0.0169
TTCTCCC,0.00244,-0.217,0.00733,-0.0234,-0.0968,0.607,-0.146,-0.241,-0.0393,-0.138
TAGGTAT,0.145,0.0422,0.256,0.721,-0.0327,1.65,-0.718,0.0643,-0.0748,0.00326
ACGTAAG,0.0123,-0.0556,-0.683,-0.354,0.0479,-1.2,0.21,0.0978,0.0607,0.0512
AACTAGA,0.043,0.00853,-0.254,-0.697,-0.0946,-0.985,-0.702,0.0108,-0.0928,-0.0248
